The text below walks through data of ChEMBL document CHEMBL3885881, “DrugMatrix”.

The species named for data set [1] is Rattus norvegicus. The data set is classed as toxicity, organism-based, Sprague-Dawley. As to conditions: in vivo, sc, 0 mg/kg, 24 h, vehicle control, route mini-PUMP - SUBCUTANEOUS, dose level Control, time 1 day, vehicle 100 % SALINE.
Data set [2] is filed under the species Rattus norvegicus. Nature of the data set: DrugMatrix - Regimen: Daily Repeat. In kind it is toxicity, organism-based, Sprague-Dawley. Also noted: regimen Daily Repeat, gender Male, age 6-8 weeks. The settings on record: in vivo, 0 mg/kg, dose level Control.
The mark [3] stands for this setting: sc, 72 h, tissue Blood, route mini-PUMP - SUBCUTANEOUS, time 3 day, vehicle 100 % SALINE.
The mark [4] stands for this setting: sc, 120 h, tissue Blood, route mini-PUMP - SUBCUTANEOUS, time 5 day, vehicle 100 % SALINE.
[5] abbreviates: po, 72 h, tissue Blood, route oral GAVAGE, time 3 day, vehicle .5 % CMC.

Certain results were filed several times, with different values. This list holds those alone. The source may hold further records. The values listed for one entry are repeated measurements across runs, samples, wells, individuals or studies. Records carry a tag for their origin. The letters are not those of the source and start again with each entry.

For the compound `CC(C)NCC(O)c1ccc(O)c(O)c1` (centres undefined) [ISOPROTERENOL], the “ABSOLUTE BASOPHIL” value is 0.0533 CELLS/uL [study A] and 0 CELLS/uL [study B] in the data set filed under Rattus norvegicus [1] (tissue Blood); 0.0333 CELLS/uL [study A] and 0 CELLS/uL [study B] in the data set listed under Rattus norvegicus [2] (setting [3]); 0.0233 CELLS/uL [study A] and 0 CELLS/uL [study B] in the data set listed under Rattus norvegicus [2] (setting [4]). Besides, the “ABSOLUTE EOSINOPHIL” value in the data set filed under Rattus norvegicus [1] (tissue Blood) is 0.0333 CELLS/uL [study A] and 26.17 CELLS/uL [study B]; in the data set filed under Rattus norvegicus [2] (setting [3]) it was 0.0533 CELLS/uL [study A] and 77.17 CELLS/uL [study B]; in the data set listed under Rattus norvegicus [2] (setting [4]), 0.0367 CELLS/uL [study A] and 0 CELLS/uL [study B]. Besides, the “ABSOLUTE LYMPHOCYTE” value was 8.34 CELLS/uL [study A] and 10985.83 CELLS/uL [study B] in the data set filed under Rattus norvegicus [1] (tissue Blood); 9.92 CELLS/uL [study A] and 14293.83 CELLS/uL [study B] in the data set filed under Rattus norvegicus [2] (setting [3]); 8.92 CELLS/uL [study A] and 14257.33 CELLS/uL [study B] in the data set listed under Rattus norvegicus [2] (setting [4]). Further, the “ABSOLUTE MONOCYTE” value in the data set filed under Rattus norvegicus [1] (tissue Blood) was 0.3 CELLS/uL [study A] and 234.5 CELLS/uL [study B]; in the data set listed under Rattus norvegicus [2] (setting [3]), 0.23 CELLS/uL [study A] and 354 CELLS/uL [study B]; in the data set listed under Rattus norvegicus [2] (setting [4]) it was 0.24 CELLS/uL [study A] and 326 CELLS/uL [study B]. Moreover, the LIPASE in the data set filed under Rattus norvegicus [1] (tissue Plasma) was 29 u/L [study A] and 8.5 u/L [study B]; in the data set listed under Rattus norvegicus [2] (sc, 72 h, tissue Plasma, route mini-PUMP - SUBCUTANEOUS, time 3 day, vehicle 100 % SALINE), 214.67 u/L [study A] and 9 u/L [study B]; in the data set filed under Rattus norvegicus [2] (sc, 120 h, tissue Plasma, route mini-PUMP - SUBCUTANEOUS, time 5 day, vehicle 100 % SALINE), 268.33 u/L [study A] and 9.33 u/L [study B].
Regarding `COc1ccc2c3c1O[C@H]1C[C@@H](O)C=C[C@@]31CCN(C)C2` [GALANTAMINE], in the data set listed under Rattus norvegicus [2] (setting [5]), the “ABSOLUTE EOSINOPHIL” value was 47.67 CELLS/uL [study A] and 0 CELLS/uL [study B]; the “NUCLEATED RED BLOOD CELLS” value was 0 /100WBC [study A] and 0.33 /100WBC [study B]. In the data set listed under Rattus norvegicus [2] (po, 72 h, tissue Plasma, route oral GAVAGE, time 3 day, vehicle .5 % CMC), the “LACTATE DEHYDROGENASE” value is 597.5 u/L [study A] and 154.33 u/L [study B]. Besides, the “ABSOLUTE MONOCYTE” value in the data set filed under Rattus norvegicus [2] (po, 120 h, tissue Blood, route oral GAVAGE, time 5 day, vehicle .5 % CMC) was 102.83 CELLS/uL [study A] and 32 CELLS/uL [study B].
